Like-named read-outs stand apart in the source and are kept apart here. Bridge positions count the residues as written; N and C are the ends. Square brackets hold non-standard residues; d marks the D form. I, II: the chains in the order shown. ξ: configuration not given here. ξK = NCCCCC(N)C(=O)O; βAla = NCCC(=O)O
Test system: pseudotyped HIV-1 (NL4-3)
[1] = Fig 4D, monomers versus N-/C-terminal dimers, pseudo HIV-1 (NL4-3), TZM-bl cells, tat-activated luciferase
[2] = Fig 2A, monomeric peptides, 100TCID50 pseudovirus pre-incubated with peptide 1 h at 37°C, added to TZM-bl cells, luciferase 72 h post-infection, three independent experiments, replicates of two

Compound | IC80 [1] [µM] | IC50 [1] [µM] | IC50 elevated by C-terminal dimerization with respect to the monomer (Fig 4D values) [fold] | IC50 [2] [µM] | IC80 [2] [µM]
CC[C@H](C)[C@H](NC(=O)[C@H](Cc1ccc(O)cc1)NC(=O)[C@H](Cc1c[nH]c2ccccc12)NC(=O)[C@H](CC(C)C)NC(=O)[C@H](Cc1c[nH]c2ccccc12)NC(=O)[C@H](CC(N)=O)NC(=O)[C@@H](NC(=O)[C@@H](NC(=O)[C@H](CC(N)=O)NC(=O)[C@H](Cc1ccccc1)NC(=O)[C@H](Cc1c[nH]c2ccccc12)NC(=O)[C@H](CC(N)=O)NC(=O)[C@H](Cc1c[nH]c2ccccc12)NC(=O)[C@H](CC(C)C)NC(=O)[C@H](CO)NC(=O)[C@H](C)NC(=O)[C@H](Cc1c[nH]c2ccccc12)NC(=O)[C@H](CCCCN)NC(=O)[C@H](CC(=O)O)NC(=O)[C@H](CC(C)C)NC(=O)[C@H](CCC(=O)O)NC(=O)[C@H](CC(C)C)NC(=O)[C@H](CC(C)C)NC(=O)[C@H](CCC(=O)O)NC(=O)[C@H](CCC(N)=O)NC(=O)[C@H](CCC(=O)O)NC(=O)[C@H](CC(N)=O)NC(=O)[C@H](CCCCN)NC(=O)[C@H](CCC(=O)O)NC(C)=O)[C@@H](C)CC)[C@@H](C)O)C(=O)N[C@@H](CCCCN)C(=O)NCCCCC(NC(=O)CCNC(=O)[C@H](CCCCN)NC(=O)[C@@H](NC(=O)[C@H](Cc1ccc(O)cc1)NC(=O)[C@H](Cc1c[nH]c2ccccc12)NC(=O)[C@H](CC(C)C)NC(=O)[C@H](Cc1c[nH]c2ccccc12)NC(=O)[C@H](CC(N)=O)NC(=O)[C@@H](NC(=O)[C@@H](NC(=O)[C@H](CC(N)=O)NC(=O)[C@H](Cc1ccccc1)NC(=O)[C@H](Cc1c[nH]c2ccccc12)NC(=O)[C@H](CC(N)=O)NC(=O)[C@H](Cc1c[nH]c2ccccc12)NC(=O)[C@H](CC(C)C)NC(=O)[C@H](CO)NC(=O)[C@H](C)NC(=O)[C@H](Cc1c[nH]c2ccccc12)NC(=O)[C@H](CCCCN)NC(=O)[C@H](CC(=O)O)NC(=O)[C@H](CC(C)C)NC(=O)[C@H](CCC(=O)O)NC(=O)[C@H](CC(C)C)NC(=O)[C@H](CC(C)C)NC(=O)[C@H](CCC(=O)O)NC(=O)[C@H](CCC(N)=O)NC(=O)[C@H](CCC(=O)O)NC(=O)[C@H](CC(N)=O)NC(=O)[C@H](CCCCN)NC(=O)[C@H](CCC(=O)O)NC(C)=O)[C@@H](C)CC)[C@@H](C)O)[C@@H](C)CC)C(N)=O (stereo partly drawn) [EK30-DC] | > 33.3 |  |  |  | 
CC[C@H](C)[C@H](NC(=O)[C@H](Cc1ccc(O)cc1)NC(=O)[C@H](Cc1c[nH]c2ccccc12)NC(=O)[C@H](CC(C)C)NC(=O)[C@H](Cc1c[nH]c2ccccc12)NC(=O)[C@H](CC(N)=O)NC(=O)[C@@H](NC(=O)[C@@H](NC(=O)[C@H](CC(N)=O)NC(=O)[C@H](Cc1ccccc1)NC(=O)[C@H](Cc1c[nH]c2ccccc12)NC(=O)[C@H](CC(N)=O)NC(=O)[C@H](Cc1c[nH]c2ccccc12)NC(=O)[C@H](CC(C)C)NC(=O)[C@H](CO)NC(=O)[C@H](C)NC(=O)[C@H](Cc1c[nH]c2ccccc12)NC(=O)[C@H](CCCCN)NC(=O)[C@H](CC(=O)O)NC(=O)[C@H](CC(C)C)NC(=O)[C@H](CCC(=O)O)NC(=O)[C@H](CC(C)C)NC(=O)[C@H](CC(C)C)NC(=O)[C@H](CCC(=O)O)NC(=O)[C@H](CCC(N)=O)NC(=O)[C@H](CCC(=O)O)NC(=O)[C@H](CC(N)=O)NC(=O)[C@H](CCCCN)NC(=O)[C@H](CCC(=O)O)NC(C)=O)[C@@H](C)CC)[C@@H](C)O)C(=O)N[C@@H](CCCCN)C(N)=O [EK30] | 16.8 | 5.7 |  |  | 
CC[C@H](C)[C@H](NC(=O)[C@H](Cc1ccc(O)cc1)NC(=O)[C@H](Cc1c[nH]c2ccccc12)NC(=O)[C@H](CC(C)C)NC(=O)[C@H](Cc1c[nH]c2ccccc12)NC(=O)[C@H](CC(N)=O)NC(=O)[C@@H](NC(=O)[C@@H](NC(=O)[C@H](CC(N)=O)NC(=O)[C@H](Cc1ccccc1)NC(=O)[C@H](Cc1c[nH]c2ccccc12)NC(=O)[C@H](CC(N)=O)NC(=O)[C@H](Cc1c[nH]c2ccccc12)NC(=O)[C@H](CC(C)C)NC(=O)[C@H](CO)NC(=O)[C@H](C)NC(=O)[C@H](Cc1c[nH]c2ccccc12)NC(=O)[C@H](CCCCN)NC(=O)[C@H](CC(=O)O)NC(=O)[C@H](CC(C)C)NC(=O)[C@H](CCC(=O)O)NC(=O)[C@H](CC(C)C)NC(=O)[C@H](CC(C)C)NC(=O)[C@H](CCC(=O)O)NC(=O)[C@H](CCC(N)=O)NC(C)=O)[C@@H](C)CC)[C@@H](C)O)C(=O)N[C@@H](CCCCN)C(=O)NCCCCC(NC(=O)CCNC(=O)[C@H](CCCCN)NC(=O)[C@@H](NC(=O)[C@H](Cc1ccc(O)cc1)NC(=O)[C@H](Cc1c[nH]c2ccccc12)NC(=O)[C@H](CC(C)C)NC(=O)[C@H](Cc1c[nH]c2ccccc12)NC(=O)[C@H](CC(N)=O)NC(=O)[C@@H](NC(=O)[C@@H](NC(=O)[C@H](CC(N)=O)NC(=O)[C@H](Cc1ccccc1)NC(=O)[C@H](Cc1c[nH]c2ccccc12)NC(=O)[C@H](CC(N)=O)NC(=O)[C@H](Cc1c[nH]c2ccccc12)NC(=O)[C@H](CC(C)C)NC(=O)[C@H](CO)NC(=O)[C@H](C)NC(=O)[C@H](Cc1c[nH]c2ccccc12)NC(=O)[C@H](CCCCN)NC(=O)[C@H](CC(=O)O)NC(=O)[C@H](CC(C)C)NC(=O)[C@H](CCC(=O)O)NC(=O)[C@H](CC(C)C)NC(=O)[C@H](CC(C)C)NC(=O)[C@H](CCC(=O)O)NC(=O)[C@H](CCC(N)=O)NC(C)=O)[C@@H](C)CC)[C@@H](C)O)[C@@H](C)CC)C(N)=O (stereo partly drawn) [QK26-DC] | 8.7 |  | 1.3 |  | 
CC[C@H](C)[C@H](NC(=O)[C@H](Cc1ccc(O)cc1)NC(=O)[C@H](Cc1c[nH]c2ccccc12)NC(=O)[C@H](CC(C)C)NC(=O)[C@H](Cc1c[nH]c2ccccc12)NC(=O)[C@H](CC(N)=O)NC(=O)[C@@H](NC(=O)[C@@H](NC(=O)[C@H](CC(N)=O)NC(=O)[C@H](Cc1ccccc1)NC(=O)[C@H](Cc1c[nH]c2ccccc12)NC(=O)[C@H](CC(N)=O)NC(=O)[C@H](Cc1c[nH]c2ccccc12)NC(=O)[C@H](CC(C)C)NC(=O)[C@H](CO)NC(=O)[C@H](C)NC(=O)[C@H](Cc1c[nH]c2ccccc12)NC(=O)[C@H](CCCCN)NC(=O)[C@H](CC(=O)O)NC(=O)[C@H](CC(C)C)NC(=O)[C@H](CCC(=O)O)NC(=O)[C@H](CC(C)C)NC(=O)[C@H](CC(C)C)NC(=O)[C@H](CCC(=O)O)NC(=O)[C@H](CCC(N)=O)NC(C)=O)[C@@H](C)CC)[C@@H](C)O)C(=O)N[C@@H](CCCCN)C(N)=O [QK26] | 6.3 | 2.4 |  | 3.9 | 8.8
Ac-EESQNQQEKNEQELLELDKWASLWNWFNITNWLWYIK-NH2 [EK37] | 11.6 | 2.8 |  |  | 
Ac-LDKWASLWNWFNITNWLWYIK-NH2 [LK21] |  |  |  | 8 | 12.3
Ac-QELLELDKWASLWNWFNIT-NH2 [QT19] |  |  |  | > 33.3 | 
I: Ac-EESQNQQEKNEQELLELDKWASLWNWFNITNWLWYIK[βAla][ξK]-NH2 / II: Ac-EESQNQQEKNEQELLELDKWASLWNWFNITNWLWYIK (amide I:39-II:C; N-terminus and C-terminus assumed) [EK37-DC] | > 33.3 |  |  |  | 
